Experiment [1] deals with T1, UbP_N (N-terminal part of DC-UbP, residues 14-141) (human) (UniProt Q8WUN7).
T1 sequence: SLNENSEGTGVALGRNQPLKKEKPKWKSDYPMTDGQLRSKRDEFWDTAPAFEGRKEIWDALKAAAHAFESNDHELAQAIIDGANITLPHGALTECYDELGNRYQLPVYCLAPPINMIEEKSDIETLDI
Put plainly: NMR titration; 15N-labelled UbP_N or UbP_C titrated with GST-UFD at a molar ratio of 1:3; peak intensity changes; both purified.

By UniProt entry, the sequences of proteins in these tests, tags left out. Where a name states a change or a piece, a line headed by the entry shows the natural chain unless it says otherwise. Residues count along the entry.
UniProt Q02053, residues 950-1058: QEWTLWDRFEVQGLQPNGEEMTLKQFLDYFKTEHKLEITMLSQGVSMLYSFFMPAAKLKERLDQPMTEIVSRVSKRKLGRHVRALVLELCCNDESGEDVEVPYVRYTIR
UniProt P45974: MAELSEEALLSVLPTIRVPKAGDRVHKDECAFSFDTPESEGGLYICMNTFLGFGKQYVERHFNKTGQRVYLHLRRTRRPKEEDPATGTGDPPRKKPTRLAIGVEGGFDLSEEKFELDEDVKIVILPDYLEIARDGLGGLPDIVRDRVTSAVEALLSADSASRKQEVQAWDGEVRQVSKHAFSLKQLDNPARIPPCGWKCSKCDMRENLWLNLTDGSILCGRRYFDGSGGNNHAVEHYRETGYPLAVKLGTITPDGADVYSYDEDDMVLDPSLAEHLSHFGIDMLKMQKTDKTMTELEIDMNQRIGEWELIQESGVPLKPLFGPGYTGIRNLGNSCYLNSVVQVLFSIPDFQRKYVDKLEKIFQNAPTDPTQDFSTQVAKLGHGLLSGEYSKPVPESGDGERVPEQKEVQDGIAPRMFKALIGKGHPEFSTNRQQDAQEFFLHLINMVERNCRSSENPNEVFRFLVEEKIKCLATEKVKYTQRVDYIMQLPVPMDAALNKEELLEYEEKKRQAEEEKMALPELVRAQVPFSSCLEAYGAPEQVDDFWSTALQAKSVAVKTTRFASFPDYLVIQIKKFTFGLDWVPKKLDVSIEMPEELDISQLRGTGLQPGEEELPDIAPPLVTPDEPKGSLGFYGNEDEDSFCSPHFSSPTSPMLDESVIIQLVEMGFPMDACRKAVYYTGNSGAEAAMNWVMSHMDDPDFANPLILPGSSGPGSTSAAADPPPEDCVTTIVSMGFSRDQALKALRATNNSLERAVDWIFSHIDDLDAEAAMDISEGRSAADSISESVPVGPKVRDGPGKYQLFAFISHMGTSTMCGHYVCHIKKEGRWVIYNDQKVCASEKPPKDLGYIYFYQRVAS
UniProt P22314: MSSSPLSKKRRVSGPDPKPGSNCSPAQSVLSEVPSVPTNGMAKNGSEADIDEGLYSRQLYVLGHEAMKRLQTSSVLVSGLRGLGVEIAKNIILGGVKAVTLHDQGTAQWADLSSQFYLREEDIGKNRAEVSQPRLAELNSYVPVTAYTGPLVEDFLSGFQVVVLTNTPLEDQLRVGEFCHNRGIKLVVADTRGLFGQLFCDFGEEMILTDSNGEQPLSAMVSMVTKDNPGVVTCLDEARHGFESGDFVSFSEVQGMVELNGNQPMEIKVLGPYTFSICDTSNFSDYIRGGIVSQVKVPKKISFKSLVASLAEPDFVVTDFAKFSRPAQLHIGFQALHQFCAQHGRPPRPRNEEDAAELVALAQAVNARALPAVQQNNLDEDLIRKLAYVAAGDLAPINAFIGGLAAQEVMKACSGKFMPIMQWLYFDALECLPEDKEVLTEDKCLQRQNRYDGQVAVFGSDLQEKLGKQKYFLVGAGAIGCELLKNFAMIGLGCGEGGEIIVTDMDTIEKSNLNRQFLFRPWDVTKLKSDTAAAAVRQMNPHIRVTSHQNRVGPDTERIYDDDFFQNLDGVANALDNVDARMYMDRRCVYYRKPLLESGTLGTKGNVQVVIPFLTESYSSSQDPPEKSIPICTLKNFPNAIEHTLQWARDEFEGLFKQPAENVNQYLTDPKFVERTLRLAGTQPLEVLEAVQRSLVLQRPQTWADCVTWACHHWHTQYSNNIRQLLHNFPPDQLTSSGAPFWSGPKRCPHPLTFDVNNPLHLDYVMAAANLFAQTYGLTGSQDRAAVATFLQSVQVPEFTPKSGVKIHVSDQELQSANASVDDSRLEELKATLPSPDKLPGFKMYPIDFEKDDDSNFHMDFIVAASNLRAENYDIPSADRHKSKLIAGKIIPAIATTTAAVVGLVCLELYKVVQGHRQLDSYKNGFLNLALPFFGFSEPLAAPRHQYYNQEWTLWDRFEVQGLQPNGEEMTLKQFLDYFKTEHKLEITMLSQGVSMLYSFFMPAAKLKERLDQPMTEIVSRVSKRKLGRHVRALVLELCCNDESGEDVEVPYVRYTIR

Experiment [2] deals with T2, UbP_C (C-terminal part of DC-UbP, residues 129-234), His-tagged (human) (UniProt Q8WUN7).
T2 sequence: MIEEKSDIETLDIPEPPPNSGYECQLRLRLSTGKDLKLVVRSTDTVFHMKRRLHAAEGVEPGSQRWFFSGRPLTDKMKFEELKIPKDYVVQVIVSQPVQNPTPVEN
Put plainly: NMR titration; 15N-labelled UbP_C (200 uM; 150 uM for the affinity) titrated with USP5_UBA12 or USP5_ZnF; 1H-15N HSQC, 20 mM phosphate, 50 mM NaCl, pH 6.5, 298 K; both purified.

The target in a further experiment is T3, GST-fused DC-UbP (human) (UniProt Q8WUN7).
T3 sequence: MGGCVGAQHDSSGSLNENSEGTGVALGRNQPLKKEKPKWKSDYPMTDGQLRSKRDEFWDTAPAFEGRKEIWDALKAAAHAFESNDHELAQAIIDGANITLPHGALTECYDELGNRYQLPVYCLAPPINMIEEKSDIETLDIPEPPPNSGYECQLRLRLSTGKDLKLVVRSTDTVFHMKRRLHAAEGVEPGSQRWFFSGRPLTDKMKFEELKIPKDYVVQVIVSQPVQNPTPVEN
Put plainly: pull-down; the same GST-DC-UbP pull-down from HEK 293T lysate, read by immunoblotting with antibodies against UbE1, USP5 or Ub (also after re-suspension in 8 M urea); only the target purified. A general note: In western blotting, separated proteins are transferred to a membrane and probed.

The target of experiment [3] is T4, FLAG-tagged UbP_C (residues 129-234 of DC-UbP) (human) (UniProt Q8WUN7).
T4 sequence: T2 sequence
Put plainly: co-IP; FLAG-DC-UbP, FLAG-UbP_N or FLAG-UbP_C co-transfected with Myc-USP5 into HEK 293T; IP with mouse anti-FLAG M2-agarose; endogenous UbE1 detected with anti-UbE1.

The target of experiment [4] is T5, FLAG-tagged UbP_N (residues 14-141 of DC-UbP) (human) (UniProt Q8WUN7).
T5 sequence: T1 sequence
The description is as above.

Experiment [5] has as its target T6, FLAG-tagged DC-UbP (human) (UniProt Q8WUN7).
T6 sequence: T3 sequence
The description is as above.

These are yes or no findings as the source states them, for the method shown. For some of these results: Binding seen in cells or lysates may run through a third protein. Some binding calls cover weakened binding; strength is not graded here. For some of these results: Where a sequence is shown, tags or fusion partners need not be part of it.

For the substance “GST-fused UFD domain of UbE1 (residues 950-1058) (from UniProt Q02053 950-1058) (domain or fragment)”, in experiment [1], the binding entry was “no binding”.
As to “USP5_ZnF (zinc-finger domain of USP5, residues 169-289) (from UniProt P45974 169-289) (domain or fragment)”, in experiment [2], the binding entry was “no binding”.
As to “endogenous USP5 (ubiquitin-specific protease 5) of HEK 293T cells (from UniProt P45974 1-858) (enzyme)”, the binding entry with GST-fused DC-UbP (human) is on record as “binds”.
As to “endogenous UbE1 (ubiquitin-activating enzyme E1) of HEK 293T cells (from UniProt P22314 1-1058)”, the binding entry with GST-fused DC-UbP (human) is “binds”; in experiment [3], “binds”; in experiment [4] it was “no binding”; in experiment [5] it was “binds”.

The values are drawn from paper PMC4160250.
